Test results from PubChem BioAssay AID624417 (National Center for Advancing Translational Sciences (NCATS), 2012).
The campaign covered roughly 410,000 compounds. About 6,400 (1.6%) were called active. Inconclusive means that the source gave no clear call. Such entries were picked first, then a sample of the others. The call rests on the fitted dose curve; in most records, active means well fitted inhibition curve with a large enough effect; inconclusive means small, poorly fitted or top-dose-only effect; inactive means no such curve, though single readings can be large or run the other way. Potencies of inconclusive entries are left out as doubtful fits.

Biological target: Glucagon-like peptide 1 receptor (Homo sapiens) (UniProt P43220)
Test: qHTS of GLP-1 Receptor Inverse Agonists (Inhibition Mode); further: nearly all actives have a fitted effect of over 55% in size
Details: HEK293 GLP-1R CRE-luciferase, luminescence, 24 h, GLP-1R form is constitutively active; activity change, negative = inhibition: at 38.3 µM (top of the series) unless noted
In short: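 qHTS in 1536-well format: reporter HEK293 cells expressing constitutive GLP-1R activity in DMEM + 10% Nu serum, 24 hr with compounds at 37 deg C, luminescence read after 12 min with detection reagent.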
On the % scale 0 is the no-effect control and ±100 the full control effect; potency means the concentration at half of the fitted maximal effect; tags describe the fitted curve by direction and shape.

Sequence of UniProt P43220 (P43220 whole entry, looked up): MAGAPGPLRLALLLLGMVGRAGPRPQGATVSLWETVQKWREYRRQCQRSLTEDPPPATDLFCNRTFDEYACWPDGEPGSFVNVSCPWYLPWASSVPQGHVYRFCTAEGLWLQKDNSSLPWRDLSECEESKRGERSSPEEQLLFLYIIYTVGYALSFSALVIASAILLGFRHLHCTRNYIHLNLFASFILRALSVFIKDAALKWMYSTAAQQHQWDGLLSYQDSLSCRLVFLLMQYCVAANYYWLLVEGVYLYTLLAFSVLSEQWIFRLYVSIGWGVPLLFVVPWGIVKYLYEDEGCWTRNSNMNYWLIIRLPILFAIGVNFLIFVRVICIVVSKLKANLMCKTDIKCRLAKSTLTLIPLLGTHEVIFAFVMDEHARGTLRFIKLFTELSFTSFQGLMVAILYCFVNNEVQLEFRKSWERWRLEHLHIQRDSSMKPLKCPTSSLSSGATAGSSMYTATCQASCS

Structure (SMILES)	activity change, negative = inhibition	Potency
CN(C)/C=N/C(=S)Nc1ccc(Cl)cc1Cl	inactive: 2.87%	
O=S(=O)(Nc1ccccc1)c1ccc(-c2cnc(C3CC3)o2)cc1		inconclusive [inhibitor, full curve]
COc1ccc(-c2nc(-c3ccccn3)no2)cc1		inconclusive [inhibitor, full curve, poor fit]
O=c1oc(-c2ccccc2NS(=O)(=O)c2ccc3ccccc3c2)nc2ccccc12	inactive: 0%	
Cc1ccc(NS(=O)(=O)c2cccc3cccnc23)c(Cl)c1		inconclusive [inhibitor, single point]
Cc1cc(N/N=C\c2ccccc2)nc(-c2ccccc2O)n1		inconclusive [inhibitor, partial curve, poor fit]
CSCC[C@H](N)C(=O)N1CCC(C(=O)N[C@@H](C)C(=O)NCc2ccc(F)cc2)CC1	inactive: -12.8%	
O=C(NCCN1CCN(C(=O)c2ccc(Br)cc2)CC1)c1ccc(Br)cc1		inconclusive [inhibitor, single point]
O=C(NC(c1ccc(F)cc1)c1ccc2ccccc2n1)C1CCN(CCOc2ccc(Cl)cc2)CC1 (configuration not stated)		active: 6.31 µM
O=C(NCc1ccccc1Cl)c1cnc2sc(N3CCOCC3)nn2c1=O	inactive: 3.02%	
Cc1cc([N+](=O)[O-])c2ccccc2c1NS(=O)(=O)c1ccccc1		active: 10 µM
CCC1=C(OC(=O)N(CC)CC)N2C(=O)OC(=NCCc3c[nH]c4ccccc34)[C@]2(Cc2ccccc2)[C@H]2C1=CC[C@H]1C(=O)NC(=O)[C@H]12		inconclusive [inhibitor, single point]
Cc1ccc(F)c(S(=O)(=O)NC(=O)C2(C)CCN2C(=O)c2ccco2)c1 (configuration not stated)	inactive: 24.1%	
CC(C)Oc1ccc(CNC(=O)C2CCCN(S(=O)(=O)N3CCOCC3)C2)cc1 (configuration not stated)		inconclusive [inhibitor, single point]
COc1cccc(OC)c1C(=O)NC(C)C12CC3CC(CC(C3)C1)C2 (configuration not stated)		active: 8.91 µM
COCC(C)NC(=O)c1ccc(-n2nc(C(F)(F)F)cc2-c2cccs2)cc1 (configuration not stated)		inconclusive [inhibitor, partial curve, poor fit]
CN1CCN(C(=O)c2cc(COc3ccc(F)cc3Cl)on2)CC1c1ccccc1 (configuration not stated)		inconclusive [inhibitor, full curve, poor fit]
COc1ccc(NC(=O)N(C)C[C@H]2Oc3c(NC(=O)Nc4ccc(C(F)(F)F)cc4)cccc3C(=O)N([C@H](C)CO)C[C@@H]2C)cc1		inconclusive [inhibitor, partial curve, poor fit]
O=S(=O)(c1ccccc1F)N1CCC(Oc2ccc(-n3cnnn3)cc2)CC1		inconclusive [inhibitor, partial curve, poor fit]
Cc1cc(C)cc(NC(=O)Nc2ccc3c(c2)N(C)C(=O)CS3)c1		inconclusive [inhibitor, partial curve, poor fit]
CCn1cc(C(=O)NCCCN(CC(C)C)CC(C)C)c(=O)c2cc(S(=O)(=O)N(C)C3CCCCC3)ccc21		inactive

Structure (SMILES)	activity change, negative = inhibition	Potency
COc1ccc(NC(=O)CN(c2ccccc2F)S(=O)(=O)c2ccc(C)cc2)c(OC)c1		inconclusive [inhibitor, partial curve, poor fit]
C=CCn1cc(/C=N/Nc2nc3ccccc3[nH]2)c2ccccc21		inconclusive [inhibitor, partial curve, poor fit]
Cc1nnc(N/N=C\c2ccc(-c3ccccc3[N+](=O)[O-])o2)n1N	inactive: 0%	
COc1ccc(/C=C2/Sc3ccc(C(=O)NCCN4CCCCCC4)cc3NC2=O)cc1		inconclusive [inhibitor, partial curve, poor fit]
CCOc1ccc(CCNCc2c(C(=O)O)n(Cc3ccc(C)cc3)c3cc(OC)ccc23)cc1	inactive: -24.1%	
Cc1ccc(N2C(N)=C(C#N)C(c3ccsc3)C3=C2CC(C)(C)CC3=O)cc1 (configuration not stated)	inactive: -7.34%	
CC1(C)C(=O)OC(c2cc(Br)ccc2O)C(C)(C)C1=O (configuration not stated)		inconclusive [inhibitor, single point]
Cc1ccc(Nc2nc(-c3sc(C)nc3C)cs2)cc1		inconclusive [inhibitor, full curve, poor fit]
CCOC(=O)[C@]12CCCC=C1N(Cc1ccc3c(c1)OCO3)C(=O)[C@H](CC(=O)NCc1cccs1)C2		inconclusive [inhibitor, partial curve]
O=C(N/N=C/c1ccc(O)cc1O)/C(=C/c1ccccc1)CCO	inactive: -13.2%	
COc1ccc(NC(=O)C(=O)NNC(=O)c2cccs2)cc1	inactive: -5.63%	
CC(=O)c1sc2nsc(SCCN3CCCCC3)c2c1N	inactive: -22.7%	
CCOC(=O)c1cc(-c2ccccc2)sc1NC(=O)C(C)Sc1nnc(C)s1 (configuration not stated)		inconclusive [inhibitor, single point]
Nc1nonc1N/N=C/c1c(O)ccc2ccccc12		inconclusive [inhibitor, single point]
Cc1ccccc1C(OCCN(C)C)C1CCCCC1 (configuration not stated)		inconclusive [inhibitor, partial curve, poor fit]
CCC1CCCCN1C(=O)CSc1nnc(-c2ccc(OC)cc2)o1 (configuration not stated)		inconclusive [inhibitor, partial curve]
O=C(N/N=C/C=C\c1ccccc1)c1cnccn1	inactive: 6.46%	
COc1ccc2cc(C(=O)C3CCCN(C(=O)c4sc(C)nc4C)C3)ccc2c1 (configuration not stated)		inconclusive [inhibitor, partial curve]
COc1ccc(CNC(=O)C(c2ccco2)N(Cc2cccs2)C(=O)Cc2cccs2)cc1 (configuration not stated)		inconclusive [inhibitor, partial curve, poor fit]
O=C(NCCCCc1ccccc1)NC[C@@H]1CC[C@@H](Cc2ccc(-c3ccccc3)cc2)O1		inconclusive [inhibitor, single point]
COc1cc(OC)c(C(=O)Nc2ccccc2-c2ccccc2)cc1OC		inconclusive [inhibitor, single point]
